Test results reported in patent US20250214977A1, “STAT6 INHIBITORS AND USES THEREOF” (Kymera Therapeutics, Inc., priority 2024, published 2025).

Target: T1, biotinylated truncated STAT6 (123-632)-avi (Homo sapiens, UniProt P42226)
T1 sequence (P42226 123-632 limits assumed): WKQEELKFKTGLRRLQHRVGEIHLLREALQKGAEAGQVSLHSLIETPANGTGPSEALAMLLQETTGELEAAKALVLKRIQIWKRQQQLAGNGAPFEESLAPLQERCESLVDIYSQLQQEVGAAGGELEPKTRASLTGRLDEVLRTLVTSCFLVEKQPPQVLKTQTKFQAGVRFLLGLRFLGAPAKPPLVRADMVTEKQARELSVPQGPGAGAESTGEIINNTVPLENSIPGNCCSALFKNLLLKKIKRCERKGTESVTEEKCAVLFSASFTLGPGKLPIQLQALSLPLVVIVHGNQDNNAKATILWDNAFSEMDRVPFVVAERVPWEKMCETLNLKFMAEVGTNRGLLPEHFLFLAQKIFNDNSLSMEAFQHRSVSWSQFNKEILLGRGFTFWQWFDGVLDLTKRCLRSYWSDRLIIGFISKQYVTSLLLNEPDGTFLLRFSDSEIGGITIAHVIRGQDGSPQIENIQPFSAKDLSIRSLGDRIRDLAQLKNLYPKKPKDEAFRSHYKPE
Test: Homogenous Time-Resolved Fluorescence (HTRF) binding assay
Settings: 0.15 nM biotinylated truncated STAT6 (123-632)-avi, 20 nM fluorescein-labeled probe

SMILES	IC50 (30 minutes at room temperature) [µM]	IC50 (30 minutes room temperature) [µM]
CN(C)C(=O)c1cc2cc([C@H]3CC[C@H](CO)N(C(=O)CCn4ccnn4)C3)ccc2o1 (single isomer, unassigned) [Example I-157]	1 to 10	
CN(C)C(=O)c1cc2cc(C3=CCCN(C(=O)[C@@H](N)Cn4ccnn4)C3)ccc2o1 (single isomer, unassigned) [Example I-173]	10 to 100	
CC(=O)N1CCc2ccccc2[C@@H]1C(=O)N1CCC=C(c2ccc3oc(C(=O)N(C)C)cc3c2)C1 (single isomer, unassigned) [Example I-177]	10 to 100	
C[C@H](Cn1ccnn1)C(=O)N1CCC=C(c2ccc3oc(C(=O)N(C)C)cc3c2)C1 (single isomer, unassigned) [Example I-228]	0.1 to 1	
COC(=O)c1cc2c(F)c([C@@H]3CCCN(C(=O)CCn4cccn4)C3)cc(-c3ccc(N4CCN(C(=O)OC(C)(C)C)CC4)cc3)c2o1 (single isomer, unassigned) [Example I-1266]		10 to 100
CN(C)C(=O)c1cc2ccc(C3=CCCN(C(=O)CCc4ccno4)C3)cc2[nH]1 [Example I-19]	> 100	
CN(C)C(=O)c1cc2ccc(C3=CCCN(C(=O)C4(C#N)CC4)C3)cc2[nH]1 [Example I-29]	1 to 10	
CN(C)C(=O)c1cc2ccc(C3=CCCN(C(=O)c4nonc4C4CC4)C3)cc2[nH]1 [Example I-44]	10 to 100	
CN(C)C(=O)c1cc2ccc(C3=CCCN(C(=O)CCc4cccc(C#N)c4)C3)cc2[nH]1 [Example I-63]	10 to 100	
CN(C)C(=O)c1cc2ccc(C3=CCCN(C(=O)[C@@H](N)Cc4cccc(F)c4)C3)cc2[nH]1 [Example I-65]	10 to 100	
CN(C)C(=O)c1cc2ccc(C3=CCCN(C(=O)c4ccc(-c5ccc(Cl)cc5)cc4)C3)cc2[nH]1 [Example I-83]	1 to 10	
CN(C)C(=O)c1cc2ccc(C3=CCCN(C(=O)C4(c5ccccc5)CCC(=O)NC4)C3)cc2[nH]1 (stereo not shown) [Example I-87]	0.1 to 1	
CN(C)C(=O)c1cc2ccc(C3=CCCN(C(=O)CC(c4ccccc4)c4ccccc4)C3)cc2[nH]1 [Example I-91]	1 to 10	
CN(C)C(=O)c1cc2ccc(C3=CCCN(C(=O)c4ccccc4-c4ccccc4C(=O)O)C3)cc2[nH]1 [Example I-105]	10 to 100	
Cc1ccc(C(=O)N2CCC=C(c3ccc4cc(C(=O)N(C)C)[nH]c4c3)C2)c(=O)n1-c1ccc(F)cc1 [Example I-111]	10 to 100	
Cc1c(S(C)(=O)=O)ccc(C(=O)N2CCC=C(c3ccc4cc(C(=O)N(C)C)[nH]c4c3)C2)c1Cl [Example I-138]	1 to 10	
CN(C)C(=O)c1cc2cc(C3=CCCN(C(=O)CCn4ccnn4)C3)cc(-c3ccc(O)cc3)c2o1 [Example I-205]	< 0.1	
CN(C)C(=O)c1cc2cc(C3=CCCN(C(=O)CCc4cncnc4)C3)ccc2o1 [Example I-272]	10 to 100	
CN(C)C(=O)c1cc2cc(C3=CCCN(C(=O)CCc4cn5cccnc5n4)C3)ccc2o1 [Example I-281]	10 to 100	
CN(C)C(=O)c1cn2ccc(C3=CCCN(C(=O)CCn4ccnn4)C3)cc2n1 [Example I-289]	10 to 100	
CN(C)C(=O)c1cc2cc(C3=CCCN(C(=O)CCc4ccncc4)C3)ccc2o1 [Example I-313]	1 to 10	
COc1ccccc1-c1cc(C2=CCCN(C(=O)CCn3ccnn3)C2)c(F)c2[nH]c(C(=O)N3CCN(c4ncccc4Cl)CC3)cc12 [Example I-324]	< 0.1	
COc1ccccc1-c1cc(C2=CCCN(C(=O)CCn3ccnn3)C2)c(F)c2[nH]c(C(=O)N3CCN(c4ncccc4OC(F)(F)F)CC3)cc12 [Example I-331, 1-(5-(7-fluoro-4-(2-methoxyphenyl)-2-(4-(3-(trifluoromethoxy)pyridin-2-yl)piperazine-1-carbonyl)-1H-indol-6-yl)-3,6-dihydropyridin-1(2H)-yl)-3-(1H-1,2,3-triazol-1-yl)propan-1-one]	< 0.1	
COc1ccccc1-c1cc(C2=CCCN(C(=O)CCn3ccnn3)C2)c(F)c2sc(C(=O)N(C)C)cc12 [Example I-337, 6-(1-(3-(1H-1,2,3-triazol-1-yl)propanoyl)-1,2,5,6-tetrahydropyridin-3-yl)-7-fluoro-4-(2-methoxyphenyl)-N,N-dimethylbenzo[b]thiophene-2-carboxamide]	< 0.1	
COc1ccccc1-c1cc(C2=CCCN(C(=O)CCn3ccnn3)C2)c(F)c2[nH]c(C(=O)N3CCN(c4cc(F)c5nc(C)n(C(C)C)c5c4)CC3)cc12 [Example I-340]	< 0.1	
COc1ccccc1-c1cc(C2=CCCN(C(=O)CCn3ccnn3)C2)c(F)c2[nH]c(C(=O)N3CCN(c4cc5ccccc5cc4OC)CC3)cc12 [Example I-342]	< 0.1	

SMILES	IC50 (30 minutes at room temperature) [µM]	IC50 (30 minutes room temperature) [µM]
COc1ccccc1-c1cc(C2=CCCN(C(=O)CCn3ccnn3)C2)c(F)c2[nH]c(C(=O)N3CCN(c4ccccc4OC)CC3)cc12 [Example I-349]	< 0.1	
COc1cnc(N2CCN(C(=O)c3cc4c(-c5ccccc5OC)cc(C5=CCCN(C(=O)CCn6ccnn6)C5)c(F)c4[nH]3)CC2)c(OC)c1 [Example I-352]	< 0.1	
COc1ccccc1N1CCN(C(=O)c2cc3c(-c4cnccc4OC(C)(C)C)cc(C4=CCCN(C(=O)CCn5ccnn5)C4)c(F)c3[nH]2)CC1 [Example I-404]	< 0.1	
COc1cnccc1-c1cc(C2=CCCN(C(=O)CCn3ccnn3)C2)c(F)c2[nH]c(C(=O)N3CCN(c4ccccc4OC)CC3)cc12 [Example I-407]	< 0.1	
COc1ccccc1-c1cc(C2=CCCN(C(=O)CCn3ccnn3)C2)c(F)c2[nH]c(C(=O)N3CC=C(c4ncccc4OC)CC3)cc12 [Example I-425]	< 0.1	
COc1cccc(C2=CCN(C(=O)c3cc4c(-c5cnccc5OC)cc(C5=CCCN(C(=O)CCn6ccnn6)C5)c(F)c4[nH]3)CC2)n1 [Example I-443]	< 0.1	
COc1ccncc1-c1cc(C2=CCCN(C(=O)CCn3ccnn3)C2)c(F)c2[nH]c(C(=O)N3CCN(c4nnccc4OC)CC3)cc12 [Example I-467]	< 0.1	
CCOc1ccncc1-c1cc(C2=CCCN(C(=O)CCn3ccnn3)C2)c(F)c2[nH]c(C(=O)N3CCN(c4ccnnc4OC)CC3)cc12 [Example I-483]	< 0.1	
CCc1cc(C)ncc1-c1cc(C2=CCCN(C(=O)CCn3cccn3)C2)c(F)c2[nH]c(C(=O)N3CCN(c4nc(C)ccc4OC)CC3)cc12 [Example I-514]	< 0.1	
CCc1nc(C)ccc1-c1cc(C(=O)N2CCN(c3ncc(F)cc3OC)CC2)cc2cc(C3=CCCN(C(=O)CCc4nccs4)C3)n(CC3CC3)c12 [Example I-523]	< 0.1	
CCc1ccc(-c2cc(C(=O)N3CCN(c4ncc(F)cc4OC)CC3)cc3cc(C4=CCCN(C(=O)C5CC5C(=O)O)C4)n(CC4CC4)c23)c(C)n1 (stereo not shown) [Example I-545]	< 0.1	
COc1ccncc1-c1cc(C2=CCCN(C(=O)CCn3ccnn3)C2)c(F)c2[nH]c(C(=O)N3CCN(c4ccccc4OC)CC3)cc12 [Example I-565]	< 0.1	
COc1ccccc1N1CCN(C(=O)c2cc3c(-c4cccc(F)c4OC)cc(C4=CCCN(C(=O)CCn5ccnn5)C4)c(F)c3[nH]2)CC1 [Example I-567]	< 0.1	
COc1cc(N)ccc1-c1cc(C2=CCCN(C(=O)CCn3ccnn3)C2)c(F)c2[nH]c(C(=O)N3CCN(c4ncccc4OC)CC3)cc12 [Example I-571]	< 0.1	
COc1cc(C#N)ccc1-c1cc(C2=CCCN(C(=O)CCn3ccnn3)C2)c(F)c2[nH]c(C(=O)N3CCN(c4ncccc4OC)CC3)cc12 [Example I-576]	< 0.1	
COc1cccnc1N1CCN(C(=O)c2cc3c(C4CCCCC4)cc(C4=CCCN(C(=O)CCn5ccnn5)C4)c(F)c3[nH]2)CC1 [Example I-579]	< 0.1	
COc1cnccc1-c1cc(C2=CCCN(C(=O)CCn3ccnn3)C2)c(F)c2[nH]c(C(=O)N3CCN(C4CC4)CC3)cc12 [Example I-605]	< 0.1	
COc1cc(F)cnc1N1CCN(C(=O)c2cc3c(-c4ccnc(N5CCN(C)CC5)c4)cc(C4=CCCN(C(=O)CCn5ccnn5)C4)c(F)c3[nH]2)CC1 [Example I-617]	< 0.1	
COc1cc(F)cnc1N1CCN(C(=O)c2cc3c(-c4cccc(-c5cccnc5)c4)cc(C4=CCCN(C(=O)CCn5ccnn5)C4)c(F)c3[nH]2)CC1 [Example I-629]	< 0.1	
COc1cc(F)cnc1N1CCN(C(=O)c2cc3c(-c4c(F)ccc5ccc(C)nc45)cc(C4=CCCN(C(=O)CCn5ccnn5)C4)c(F)c3[nH]2)CC1 [Example I-631]	< 0.1	
COc1ccc(-c2cc(C3=CCCN(C(=O)CCn4ccnn4)C3)c(F)c3[nH]c(C(=O)N4CCN(c5ncc(F)cc5OC)CC4)cc23)c(C2CC2)c1 [Example I-641]	< 0.1	
COc1cc(F)cnc1N1CCN(C(=O)c2cc3c(C4=CCN(C(C)=O)CC4)cc(C4=CCCN(C(=O)CCn5ccnn5)C4)c(F)c3[nH]2)CC1 [Example I-657]	< 0.1	
COc1cc(F)cnc1N1CCN(C(=O)c2cc3c(-c4cnc5c(C)cccc5c4)cc(C4=CCCN(C(=O)CCn5ccnn5)C4)c(F)c3[nH]2)CC1 [Example I-672]	< 0.1	
COc1cc(F)cnc1N1CCN(C(=O)c2cc3c(-c4ccncc4C(C)C)cc(C4=CCCN(C(=O)CCn5cccn5)C4)c(F)c3[nH]2)CC1 [Example I-685]	< 0.1	
COc1ccccc1-c1cc(C2=CCCN(C(=O)CCn3ccnn3)C2)c(F)c2[nH]c(C(=O)N3CCN(c4cc(=O)[nH]cc4F)CC3)cc12 [Example I-779]	< 0.1	
CN(C)C(=O)c1cc2ccc(C3=CCCN(C(=O)CCc4ccon4)C3)cc2[nH]1 [Example I-831]	0.1 to 1	
